The whole screen tested about 360,000 compounds, of which about 11,000 (3.1%) were called active. The inconclusive results got no clear call from the source; some entries with a clear call stand among them for comparison. Calls come from the whole dose curve; as a rule, active = well fitted inhibition curve with a large enough effect; inconclusive = small, poorly fitted or top-dose-only effect; inactive = no such curve, though single readings can be large or run the other way. No potency is given beside an inconclusive call; the fits are too rough.
Molecular target: Schistosoma mansoni thioredoxin glutathione reductase (TGR) (UniProt Q962Y6)
Assay: qHTS Assay for the Inhibitors of Schistosoma Mansoni Peroxiredoxins; note: nearly all actives have a fitted effect of over 60% in size
Details: purified TGR, DTNB reduction, TNB absorbance 405 nm; activity change, negative = inhibition: at 114 µM (top of the series)
In short: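 First, TGR (20 nM dispensed) and NADPH were mixed with compound. Second, a 15 min room-temperature incubation followed. Third, further NADPH and then DTNB were added to start the reaction. Finally, TNB absorbance was monitored kinetically.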
% is set by controls: 0 for no effect and ±100 for the full control effect; potency is the fitted concentration of half-maximal effect; tags give direction and shape of the fitted curve.

**Q.** How did the “activity change, negative = inhibition” value turn out when `CN(CC(=O)Nc1cccc(F)c1)C(=O)CC1CCCCC1` was run?
**A.** inactive: 5.11%

**Q.** Which Potency does the source give for `CCOC(=O)c1c(S(=O)(=O)NCCCc2ccco2)c(C)n(C)c1C` here?
**A.** active: 28.2 µM

**Q.** How did the Potency turn out when `Cc1cc2[nH]ncc2cc1NC(=S)NC(=O)c1ccccc1` was run?
**A.** inconclusive [inhibitor, full curve]

**Q.** With `CN(C)S(=O)(=O)c1ccc(C(=O)NCC(c2cccs2)N2CCOCC2)cc1` (stereo unspecified) as the compound, how does the Potency read?
**A.** active: 56.2 µM

**Q.** Which Potency does the source give for `CC(NC(=O)c1ccc([N+](=O)[O-])o1)C12CC3CC(CC(C3)C1)C2` (stereo unspecified) here?
**A.** inconclusive [inhibitor, partial curve]

**Q.** For `CCOC(=O)c1cnn(-c2ccccn2)c1N`, which “activity change, negative = inhibition” value is on record?
**A.** inactive: 1.58%

**Q.** How did the Potency turn out when `CCn1cc(CNC(=O)c2cc(Cl)ccc2OC)c(C)n1` was run?
**A.** inconclusive [inhibitor, single point]

**Q.** With `Clc1ccc(OCCSc2ncccn2)cc1` as the compound, how does the “activity change, negative = inhibition” value read?
**A.** inactive: 4.56%

**Q.** How did the “activity change, negative = inhibition” value turn out when `N#Cc1nc(COc2cccc(Cl)c2)oc1NCc1ccco1` was run?
**A.** inactive: -25%

**Q.** `O=C1CCN(CCc2ccccc2)CCN1CCSc1ccc(Br)cc1` was tested. Which Potency did it give?
**A.** inconclusive [inhibitor, full curve, poor fit]

**Q.** With `CC(=O)N1c2ccccc2C(=O)C1N1CCN(c2cc(Cl)ccc2C)CC1` (stereo unspecified) as the compound, how does the Potency read?
**A.** inconclusive [inhibitor, partial curve]

**Q.** For `CCOc1ccc(NC(=O)CC2C(=O)N(c3cccc(C)c3)C(=O)N2Cc2ccco2)cc1` (stereo unspecified), which Potency is on record?
**A.** inconclusive [inhibitor, partial curve]

**Q.** With `C=CCOc1ccc(C2C3=C(CCCC3=O)N(CC(=O)O)C3=C2C(=O)CCC3)cc1OCC` as the compound, how does the Potency read?
**A.** active: 44.7 µM

**Q.** Which Potency does the source give for `O=C(/C=C/c1ccc(-c2ccccc2[N+](=O)[O-])o1)c1ccc(Br)cc1` here?
**A.** inconclusive [inhibitor, partial curve]

**Q.** `COc1nccnc1NS(=O)(=O)c1ccc(NC(=S)NC(=O)c2ccccc2F)cc1` was tested. Which Potency did it give?
**A.** inconclusive [inhibitor, partial curve]

**Q.** How did the “activity change, negative = inhibition” value turn out when `Cc1cc(Cl)ccc1OCC(=O)Nc1ccccc1NS(=O)(=O)c1cccs1` was run?
**A.** inactive: 0.636%

**Q.** With `O=C(Cc1ccc(Cl)cc1)NCC(c1cccs1)S(=O)(=O)c1ccc(Cl)cc1` (stereo unspecified) as the compound, how does the Potency read?
**A.** inconclusive [inhibitor, partial curve]

**Q.** `CCCn1c(CC)nc([N+](=O)[O-])c1Sc1ccc(F)cc1` was tested. Which Potency did it give?
**A.** active: 44.7 µM

**Q.** For `O=C(CCN1CCN(c2ccccc2)CC1)N/N=C/c1ccc([N+](=O)[O-])o1`, which Potency is on record?
**A.** active: 31.6 µM

**Q.** For `Cc1ccc(S(=O)(=O)N(CC(=O)NCc2ccco2)c2ccccc2C)cc1`, which Potency is on record?
**A.** inconclusive [inhibitor, partial curve]

**Q.** For `O=C(CSc1nnc(-c2ccccn2)n1Cc1ccco1)c1ccccc1`, which Potency is on record?
**A.** inconclusive [inhibitor, partial curve]
